Assay results: PubChem BioAssay AID488969 (Vanderbilt High Throughput Screening Facility, 2010)
In all, about 110,000 compounds were measured (“z-score”: median about -0.1, highest 2% from about 2 on). This is one part of the list. Active and inactive are the calls of the source.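 How the source made its calls: active means z-score in the third read window above 3 or below -3; inactive means the rest.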

Target: Metabotropic glutamate receptor 8 (Rattus norvegicus) (UniProt P70579)
Assay: rat mGluR8 modulators via GIRK flux, primary screen, cell-based, thallium flux, HTS (AID 488969)
Details: HEK293 rat mGluR8, GIRK (G protein-gated inwardly rectifying potassium channel) thallium flux, FluoZin2; at 10 µM; stronger effect = higher value; submaximal glutamate (EC20) added with thallium

Chain of UniProt P70579 (P70579 whole entry, looked up): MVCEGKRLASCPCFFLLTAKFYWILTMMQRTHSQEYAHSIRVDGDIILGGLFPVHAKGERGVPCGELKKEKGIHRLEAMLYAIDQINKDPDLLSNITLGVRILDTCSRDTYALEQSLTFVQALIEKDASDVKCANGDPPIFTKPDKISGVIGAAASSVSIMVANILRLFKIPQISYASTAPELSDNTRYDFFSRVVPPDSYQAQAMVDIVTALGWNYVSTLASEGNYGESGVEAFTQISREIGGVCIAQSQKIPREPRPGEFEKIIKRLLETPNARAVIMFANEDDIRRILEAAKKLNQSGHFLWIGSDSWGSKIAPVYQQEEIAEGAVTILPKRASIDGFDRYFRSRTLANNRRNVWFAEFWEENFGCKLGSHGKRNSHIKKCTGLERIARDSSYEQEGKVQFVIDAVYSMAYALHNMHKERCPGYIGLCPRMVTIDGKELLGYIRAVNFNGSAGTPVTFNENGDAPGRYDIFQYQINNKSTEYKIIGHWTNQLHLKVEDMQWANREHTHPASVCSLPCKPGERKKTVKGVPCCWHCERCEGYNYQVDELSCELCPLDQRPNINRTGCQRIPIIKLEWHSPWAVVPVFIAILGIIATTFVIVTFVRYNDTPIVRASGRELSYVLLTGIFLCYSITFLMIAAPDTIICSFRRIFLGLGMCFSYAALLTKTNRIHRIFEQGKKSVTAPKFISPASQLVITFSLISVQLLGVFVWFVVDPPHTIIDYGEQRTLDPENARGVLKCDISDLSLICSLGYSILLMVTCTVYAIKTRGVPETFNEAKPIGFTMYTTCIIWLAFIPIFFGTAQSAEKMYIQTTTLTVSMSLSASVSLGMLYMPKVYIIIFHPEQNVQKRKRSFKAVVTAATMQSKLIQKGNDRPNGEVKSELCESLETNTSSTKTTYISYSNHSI

Compound	z-score
Cc1ccc(C(=O)Nc2ccc(S(=O)(=O)N3CCN(C)CC3)cc2)cc1	-0.284
CCN(CC)c1ccc(NC(=O)c2cc3ccccc3o2)c(C)c1	0.11
COc1ccc(/C(N)=N/OC(=O)Cc2ccc(C)cc2)cc1	-0.305
CCc1ccc(NC(=O)COC(=O)C2(c3ccc(Cl)cc3)CCCC2)cc1	-0.0401
C/C(CC(=O)Nc1cc(Cl)ccc1Cl)=N\NC(=O)c1ccco1	0.0135
CCCCC(=O)NCCNc1nc2c(c(=O)n(C)c(=O)n2C)n1Cc1ccccc1	0.0277
NS(=O)(=O)c1ccc(NC(=S)N2CCN(c3cccc(Cl)c3)CC2)cc1	0.265
Cc1ccc(CN2CCN(CC(=O)N=Nc3c(O)[nH]c4ccccc34)CC2)cc1	-0.809
CCOC(=O)N1CCC(N2C(=O)c3cc(C(=O)NC4CCCCC4)ccc3C2O)CC1 (stereo not given)	-0.198
CC(=O)N(C(C)=O)c1c(N2CCOCC2)c2ccccc2oc1=O	0.0986
CCOC(=O)C1=C(C)N2C(=C(C#N)[C@@H]1c1ccc(C(=O)OC)cc1)SC[C@@]2(O)C(C)(C)C	-0.00119
O=C(CSc1ncnc2c1cnn2CCc1ccccc1)Nc1cccc(C(F)(F)F)c1	-0.203
COc1cc(CNC(C)(C)CO)cc(Br)c1OCc1ccc(Cl)cc1	1.1
Cn1nnc(C(O)CN2CCOCC2)n1 (stereo not given)	0.423
Cc1ccc(CC(=O)NCCCc2ccccc2)cc1	-0.276
COc1ccc(C(=O)Nc2ccc(S(=O)(=O)N3CCOCC3)cc2)cc1OC	0.18
CN(CC(=O)NCc1ccco1)S(=O)(=O)c1cccc2cccnc12	-0.183
CCOC(=O)Cn1c(C)c(C#N)c2ccccc21	-0.381
CCOc1ccc(-c2noc(=O)[nH]2)cc1	0.27
COc1ccc(NC(=O)CSc2nnc(C)n2Cc2ccccc2)cc1	-0.441
CCc1ccc(OCC(=O)N/N=C(\C)c2ccc(OC(F)F)cc2)cc1	-0.207
CCOC(=O)Nc1ccc(NS(=O)(=O)c2ccc(C)cc2)cc1	-0.137
COC(=O)CCc1nc2ccccc2[nH]c1=O	-0.153
CCOc1ccc(S(=O)(=O)N2CCCC2)cc1	-0.243

Compound	z-score
C=CCn1c(SCC(=O)Nc2ncc(Cc3ccc(Br)cc3)s2)nnc1-c1ccncc1	-0.195
CCCC(=O)Nc1cccc(NC(=O)c2ccc3c(c2)OCCO3)c1	-0.807
CCOC(=O)c1c(NC(=O)CSc2nnc(-c3ccc(C)cc3)o2)sc(C(C)=O)c1C	-0.117
O=C(Nc1nc(-c2cccs2)cs1)c1cc2ccccc2oc1=O	0.0525
Nc1c(N2CCCC2)cc(Cl)c2nonc12	0.00595
O=C1N(c2cccc(Cl)c2)C(c2ccccc2)N2CCCN12 (stereo not given)	-0.104
CCC(=O)Nc1cc(-c2nn(C)c(=O)c3ccccc23)ccc1N1CCOCC1	-0.532
Cc1c(C#N)c(N=CN(C)C)c(C(=O)c2ccc(Br)cc2)n1-c1ccc(Cl)cc1	-1.97
CC(C)[C@H](NC(=O)c1ccccc1Cl)C(=O)OCc1cc([N+](=O)[O-])cc2c1OCOC2	-0.769
Cc1nn(Cc2ccccc2)c(C)c1NC(=O)Cn1nc([N+](=O)[O-])c(Cl)c1C	0.325
CC(C)(C)S(=O)(=O)c1nc2ccccc2s1	0.279
Cc1c(Cl)c([N+](=O)[O-])nn1CC(=O)NC12CC3CC(CC(C3)C1)C2	-0.145
CC1Oc2ccccc2C=C1/C=N/NC(=O)c1ccccc1 (stereo not given)	1.9
COc1ccc(-n2nnc3c(SCC(=O)Nc4ccc5c(c4)OCCO5)ncnc32)cc1	0.658
O=C(Nc1ccc(C#Cc2ccccc2)cc1)C1CC1	0.253
COCCNC(=S)NC1CC2CCCC(C1)N2Cc1ccco1 (stereo not given)	-0.143
COc1ccc([C@H]2[C@H](C(=O)OC(C)(C)C)N3N=Cc4ccccc4C3C23C(=O)c2ccccc2C3=O)cc1OC (stereo not given in full)	-0.258
O=c1oc2ccccc2cc1-c1csc(NN=C2CCCC2)n1	-0.3
Cc1ccc(NC(=O)c2sccc2C)cc1S(=O)(=O)N(C)C	-0.581
Cc1cc(Cl)ccc1OCCCC(=O)NCCN1C(=O)S/C(=C\c2cccnc2)C1=O	0.246
Cc1ccccc1NC(=O)c1ccc2c(c1)C(=O)N(CCC(C)C)C2=O	0.778
Oc1ccc(CNCC2COc3ccccc3O2)cc1 (stereo not given)	0.153
Cn1c(=O)c2[nH]c(CN(Cc3ccccc3)Cc3ccccc3)nc2n(C)c1=O	0.126
Cc1cc(N)c(NC2=CC(=O)CC(C)(C)C2)cc1C	0.101

Compound	z-score
CCOC(=O)C1=C(C)OC(N)=C(C#N)C1c1cc2ccccc2nc1N1CCCCC1 (stereo not given)	0.0918
COC(=O)c1ccccc1NC(=O)C1CC(=O)N(c2ccc(F)cc2)C1 (stereo not given)	2.15
O=C(NCC1COc2ccccc2O1)c1ccc(NC(=O)c2ccco2)cc1 (stereo not given)	-0.221
CCOC(=O)Cn1c(=O)oc2cc(S(=O)(=O)NCC3CCCO3)ccc21 (stereo not given)	0.198
Cc1onc(-c2c(F)cccc2Cl)c1C(=O)OCn1nnc2ccccc2c1=O	-1.21
COc1cc(NS(=O)(=O)c2ccc3c(c2)n(C)c(=O)n3C)cc(OC)c1	-0.0546
Clc1ccc(CO/N=C/c2c(-c3ccccc3)nc3n2CCS3)c(Cl)c1	-0.1
Cc1ccc(S(=O)(=O)NNC(=O)C2Cc3c(ccc4ccccc34)O2)cc1 (stereo not given)	0.308
O=C(NCCCN1CCOCC1)c1coc2ccccc2c1=O	-0.654
COc1ccc(/C=N/NC(=O)c2nc(Cl)c(Cl)c(N)c2Cl)cc1COc1ccc(F)cc1F	-0.274
CC1CCN(CCCNC(=O)C2CC(=O)N(C3CCCCCC3)C2)CC1 (stereo not given)	0.0065
COCCOCCn1c(CCCO)nc2ccccc21	-0.12
Fc1ccc(CSc2nc3ccccc3[nH]2)c2ccccc12	active: 10.7
CC1CN(S(=O)(=O)c2ccc(Cl)c(C(F)(F)F)c2)CC(C)O1 (stereo not given)	-0.506
CC(=O)Nc1cc2c(cc1C(C)=O)OCCO2	-0.0455
Fc1ccc(-n2c(-c3ccc4c(c3)OCO4)n[nH]c2=S)cc1Cl	-0.0511
O=C1c2ccccc2C(O)N1CCN1CCOCC1 (stereo not given)	-1.65
CCn1ncc(Br)c1C(=O)Nc1sc2c(c1C(=O)OC)CCC2	-0.118
C/C(=N\NC(=O)CNc1ccccc1Cl)C(C)(C)C	-0.712
CCOc1ccc(NS(=O)(=O)N(C)C)cc1	-0.0607
CCOC(=O)Cn1c2c(c(=N)c3ccccc31)CCC2	-0.132
CC1CCc2sc(C(=O)Nc3nnc(SCc4ccc(F)cc4)s3)cc2C1 (stereo not given)	-0.825
